In all, about 33,000 sequences were measured (“E-score (dimensionless, -0.5 to 0.5)”: median about -0.058, highest 2% from about 0.35 on). The list shows a part of the results.
test system: MvaT; assay: PBM 8-mer E-score (mean of HK and ME arrays) (E-score (dimensionless, -0.5 to 0.5)); higher = stronger relative binding preference; most listed sequences are background and not binding sites
Summary of the method: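 Full-length P. aeruginosa MvaT, with glutathione S-transferase fused to its N-terminus (cloned into pTH6838 by isothermal assembly), was tested by protein binding microarray using a previously described protocol. Two universal double-stranded 60-mer arrays (ME and HK) were used, each with a constant 25-mer primer region and a variable 35-mer region covering all 8-mers. The rank-based 8-mer E-score (-0.5 to 0.5) is the mean of the two arrays, parsed with a custom Python script.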

Sequence | PBM 8-mer E-score
CCATCGCA | 0.0159
GGCCTATA | -0.0174
CCTTTCGC | -0.308
CGTTGGTC | -0.0989
CGCCCGCG | -0.234
CGGGTACA | -0.0736
CACCGTAG | -0.184
ACTCCTAT | 0.0892
AAGACCCA | -0.116
AGTGGGAT | -0.0288
CCTTCCCA | -0.335
CCAGAAGC | -0.22
TAATCTAA | 0.292
GATACGGC | -0.0759
CTAATACA | 0.325
AAATAACA | 0.336
GCACACGC | -0.0844
CCATCAAA | -0.0724
CAGATCAA | -0.0545
GCCAAGCA | -0.313
ATAGCCCC | -0.201
ACGTCAGA | -0.152
CGGTGAAG | -0.0293
AAGCCTTC | -0.205
CTGGACTC | -0.179

Sequence | PBM 8-mer E-score
GTATCATA | 0.134
AGGTTCAA | -0.105
ATAGTAGG | 0.15
CTTCACAC | -0.0643
GTTGAAAC | 0.144
TGGCACAA | -0.0416
ATAACTGA | 0.246
TACCTAAA | 0.155
GGGCGGAC | -0.302
CTGTGCGC | -0.0389
CCATTAAC | 0.0581
AGACTCTC | -0.112
GAGTAATA | 0.287
ACATTACT | 0.335
AAGAAGCC | -0.086
CGAGATTA | 0.302
TCGTGGAA | 0.109
CCAAGAGA | -0.199
AGATGCGA | -0.108
CTCCGGGA | -0.0338
CATCTGCG | -0.0832
CCGACAAG | -0.182
ATATGTGA | 0.316
CCCTCTCC | -0.302
CCAGTGGA | -0.145

Sequence | PBM 8-mer E-score
AGTTGAAA | 0.207
CGTTTTGA | 0.0195
ATTTTCGC | 0.0826
CTGGCACA | -0.132
ATGGGATG | -0.094
ACCTAAGG | -0.106
GCCAGGCC | -0.312
AACTCAAC | 0.0196
GTCATCAA | -0.0585
CAAATGAC | 0.232
GCGTAGTA | -0.11
AATAGCAC | 0.113
GCGGCACA | -0.119
GACCCGGC | -0.246
AAGCGAGA | -0.198
ACCTCGGA | -0.138
AGCAAACG | -0.117
ATGAGCGA | -0.0828
ATTTAACC | 0.195
GTTTAGCA | 0.0407
TCTACAGA | 0.0213
CACGTTGA | -0.0691
GGTTCGGA | -0.109
AGTTAGGC | 0.0261
AACGTCAT | -0.0323

Sequence | PBM 8-mer E-score
ACGTCCGG | -0.0895
AGCATCAA | -0.0528
ACGCTGAA | -0.00947
GGGCTTTA | -0.212
CACTTGTC | -0.0963
AGTCCCGA | -0.0661
CTCGCTGC | -0.0888
GTCCAACA | 0.0273
CTTATGGC | -0.104
AAGACCGT | -0.15
CTAGCCGA | -0.168
GCGCCTCC | -0.312
TAACTCCA | 0.147
TCTAGACA | -0.0261
CCGTGCGA | -0.193
CTGAAAGA | -0.0364
ATCAACAC | -0.0437
CTTCATAC | 0.0212
ACATCTAG | 0.167
AGTGGAAA | 0.0767
AAGCAGAC | -0.0976
GCCTTCGA | -0.124
GGCAATAC | 0.0146
CGAGACCG | -0.14
AACTCCTG | 0.0552

Sequence | PBM 8-mer E-score
TATCTCAA | 0.121
AACCGATA | 0.172
GATTTGCA | 0.1
ACCATGGC | -0.192
CCATCCCG | -0.318
AAAAGATA | 0.186
CTTATCCA | 0.125
GTCACACA | -0.0498
ACTACTAT | 0.338
ATAGGCAT | -0.0831
CTGTCAAA | -0.0819
CGTGGATC | -0.132
GATGGCGC | -0.288
TAATTCAA | 0.346
GACTCGAA | -0.104
ACGTAAGA | -0.0609
GAGCTCTA | -0.12
CGCCTGGA | -0.279
AATCAACA | 0.118
CTTGAGCC | -0.347
GCGAGTCC | -0.304
CTGTCGCC | -0.165
ATCGGGCC | -0.291
CCAACCCG | -0.155
GGCTTGAA | -0.104

Sequence | PBM 8-mer E-score
CCACTGCA | -0.0146
CAAGATGG | -0.0132
CCTAGCTC | -0.133
TAATCGAA | 0.168
GGTTTTAA | 0.243
AGACCCTG | -0.261
AACATGCA | 0.238
GCGAAAAA | 0.176
AGACGGCC | -0.171
CAAATTGG | -0.0407
AAATGGGA | -0.0542
AGGGGTTA | -0.0662
GCCTTCAC | -0.138
TCGATAAA | 0.158
CACTTTGG | -0.151
CATCTAAG | 0.02
AGACCTAC | -0.146
ACACCGTG | -0.267
AATGGCGA | 0.0392
CCGGTTGC | -0.249
CACACATG | -0.158
GAGAGCGA | -0.266
CCTTTGCC | -0.177
AATTCGTA | 0.267
GTGCTTTA | 0.0304

Sequence | PBM 8-mer E-score
CGTTGCAG | -0.128
ACATTAGA | 0.175
CCTAATAG | 0.0342
GGTGTGAA | -0.115
CAAGTGTC | 0.0139
AACCAGAG | -0.0261
CCAATGTA | 0.0446
GCACGACC | -0.211
GTAAAGTA | 0.311
CCTTAAGA | 0.0147
GAACAGAA | 0.0885
ATTCCCTC | -0.0531
AAGCGGGT | 0.0658
ACCTCCTA | -0.261
CAGAATCG | -0.0961
ATATAGAG | 0.351
GACGGCAC | -0.151
AGTTGGAT | 0.182
CGACATAC | -0.141
GCAGGATA | -0.0415
AGTTACAC | 0.156
ACCTTATA | 0.266
CCAAACGG | -0.0709
ACCTAGAA | 0.0098
TATCATGA | 0.162

Sequence | PBM 8-mer E-score
GACCCGAC | -0.209
ATTTATAC | 0.383
AATTGGCC | -0.0386
GCCTTCCA | -0.248
GGGGAGAA | -0.0599
CGCCCCCC | -0.306
CGCAGGTA | -0.071
AGCCGGAC | -0.198
CGTTACTC | -0.0177
CCGGTTAA | 0.0615
ACCTACTG | -0.0851
CTGCGAGA | -0.109
GATCACCC | -0.211
ACTGCTGG | -0.0671
CGTGCACC | -0.217
TCCTGTAA | -0.0302
ATGTATTC | 0.152
ACACCTGC | -0.192
ACAATTCA | 0.202
CTCGGCCA | -0.275
CTACCCAC | -0.0554
ACGAGTAA | 0.123
GCTCAGTA | -0.0967
ATACAGCG | 0.00347
CTTATAAC | 0.352

Sequence | PBM 8-mer E-score
AAAGTTTG | 0.284
ACGTATCG | -0.113
AGCGAGAA | -0.14
TCAACAGA | -0.0319
CGCAGTGC | -0.113
CAGAAGCA | -0.067
ACGGCTCA | -0.195
ATACTAAC | 0.281
ACGTGCTC | -0.148
CACGTAGG | -0.198
CCCGGGCG | -0.302
ACGTACTG | -0.0685
ACCGTGCC | -0.195
CTTATTAC | 0.367
CGGAATTC | -0.0907
GCCGGCGA | -0.262
CGGGAAAA | 0.0519
CCTATAAA | 0.211
AGAGATAT | 0.285
GAGTGCAC | -0.191
AATTTTCC | 0.233
AGTGAAGA | -0.0319
AGCGGAAG | -0.121
GACAACAA | 0.0775
CTGTTGTA | 0.199

Sequence | PBM 8-mer E-score
AAAGAACA | 0.103
TAACTTCA | 0.282
CAGATTAG | 0.108
AACATTTA | 0.334
AGCCATGA | -0.0893
GGGAGCCC | -0.305
CAATTAAC | 0.234
CCCGCCGG | -0.223
ACGTAGTC | -0.289
GAGGCAGA | -0.244
CCGCGCAC | -0.102
AATCAAAA | 0.186
AAATTAGT | 0.281
AAAAGCCG | 0.0019
ACGCAGCC | -0.21
CCAGTGCC | -0.229
GACCGGCC | -0.208
AGCCGTAT | -0.0393
ATTTTGCA | 0.167
CGCTCACG | -0.262
AAGTAGAT | 0.044
ACGATGCG | -0.235
CGTCTACC | -0.0847
GCGGCTAC | -0.204
AACGTACG | 0.0774

Sequence | PBM 8-mer E-score
ACTGCCTG | -0.0185
ACGTGAAT | 0.0978
GAACGGTA | -0.0707
AGGTGGAC | -0.19
GTTCCGCA | -0.111
GGTCCAGA | -0.209
CGTGAATC | -0.145
CCAGTACA | 0.0309
ATCTTGAC | 0.0211
AGGGGTTC | -0.193
AATTGGCA | -0.0711
CGCTAGTA | -0.0941
CTGGTGGC | -0.196
GATGTCGC | -0.145
GATTGGGA | -0.246
CTCATACC | -0.0218
AGTCGCAT | -0.137
ATTATGAA | 0.269
GCTCAAAC | 0.0144
GCGAGCAC | -0.249
AATCTCAG | -0.101
GCTTCACA | -0.0468
ACTTCTTG | 0.177
GTGTTCGA | 0.0764
CGTTTTCA | 0.0897

Sequence | PBM 8-mer E-score
CCGCCCCG | -0.281
ATAAAATA | 0.427
AAACGTCC | -0.189
AGGCCACA | -0.28
ATCCCTCG | -0.099
AGGTAATA | 0.234
GTGGCCCA | -0.122
AAAGCCTT | 0.0794
CTGCATAA | 0.0595
ATTCTTCG | 0.155
GAGGCCAC | -0.194
CGTGATAA | 0.21
AGTTCACC | 0.0614
GTTTGGTA | 0.106
CCTCACAG | -0.0896
CAATGATA | 0.15
CAGCGCAG | -0.295
CACGCTGA | -0.0407
CAAGACCC | -0.295
AAGACTCG | -0.0174
CCAGTGAA | -0.0909
GACGCCTA | -0.199
CCGCGGCG | -0.0831
ACTTCATC | 0.0586
GAAGGTAC | -0.141

Sequence | PBM 8-mer E-score
AGGTCGTG | -0.0505
TCCCCAAA | -0.0366
CGATTGTC | -0.0957
CAAAAGCC | -0.051
CTGATCGA | -0.301
AATACAGC | 0.247
CTCTTATA | 0.289
AGATGCAG | 0.05
AATTATCT | 0.296
ATACTTTG | 0.236
GGTCGTGA | -0.104
GAGAACCC | -0.203
TCAATGGA | 0.0508
ACCTGACC | -0.204
AAAAACAC | 0.087
GACCCCAC | -0.415
CAGTGCAC | -0.013
AAGAACAC | -0.119
AAGGCTGA | -0.182
AAATTGTG | 0.137
ACCGAACT | 0.124
CTGGTTTC | -0.13
AGCACAAC | -0.022
ATCGCTCA | -0.078
ATTCGATG | -0.00134

Sequence | PBM 8-mer E-score
CCGACCGG | -0.327
CGATGCAA | -0.0524
ATGACATA | 0.116
CATAGGTA | -0.118
ATTTGAGC | 0.167
ACAGCCCA | -0.183
CAAGACGA | -0.0256
ACGTTGAT | 0.0529
CTGGCGGC | -0.148
AGTGTGCA | 0.136
GTAGCGTA | 0.0466
ATAGGGAT | 0.00192
CACTGGAC | -0.115
GCGCCTGA | -0.367
AAGCACCG | -0.14
AGTTCATA | 0.181
CTTGCTTC | -0.0582
GCGAGGAC | -0.247
CGACGGAA | 0.0507

Source: the supplement of paper PMC4466236
